Measured values reported in the supplement of paper PMC11876631.
Where a chain is given by its changes, count along the chain named. In names and notes the source's numbering stands. ± gives the standard deviation of the averaged measurements. Laboratory Escherichia coli strains with one amino-acid change in an essential protein, pooled on minimal glucose agar with carbenicillin or gentamicin at twice the control MIC (plus kanamycin and chloramphenicol for the plasmids), 48 h. Fold change of barcode share against drug-free plates; higher = less susceptible. Active = above 20 in both replicates (the paper's putatively resistant). '<' = one read or none on drug, '>' = one read or none on a drug-free plate. Shares are relative, so most strains fall below 1 when a few take over. Listed are strains with at least 15 reads on both drug-free plates, and hits; most hits rest on fewer reference reads. Replicate rank correlation about 0.5. Edits are read from barcodes.

B1: aroB V40P (protein)
chain: MERIVVTLGERSYPITIASGLFNEPASFLPLKSGEQVMLPTNETLAPLYLDKVRGVLEQAGVNVDSVILPDGEQYKSLAVLDTVFTALLQKPHGRDTTLVALGGGVVGDLTGFAAASYQRGVRFIQVPTTLLSQVDSSVGGKTAVNHPLGKNMIGAFYQPASVVVDLDCLKTLPPRELASGLAEVIKYGIILDGAFFNWLEENLDALLRLDGPAMAYCIRRCCELKAEVVAADERETGLRALLNLGHTFGHAIEAEMGYGNWLHGEAVAAGMVMAARTSERLGQFSSAETQRIITLLKRAGLPVNGPREMSAQAYLPHMLRDKKVLAGEMRLILPLAIGKSEVRSGVSHELVLNAIADCQSA
B2: aroB V273A (protein)
chain: B1 chain with P40V, V273A
B3: lipA I22D (protein)
chain: MSKPIVMERGVKYRDADKMALDPVKNVATEREALLRKPEWMKIKLPADSTRIQGIKAAMRKNGLHSVCEEASCPNLAECFNHGTATFMILGAICTRRCPFCDVAHGRPVAPDANEPVKLAQTIADMALRYVVITSVDRDDLRDGGAQHFADCITAIREKSPQIKIETLVPDFRGRMDRALDILTATPPDVFNHNLENVPRIYRQVRPGADYNWSLKLLERFKEAHPEIPTKSGLMVGLGETNEEIIEVMRDLRRHGVTMLTLGQYLQPSRHHLPVQRYVSPDEFDEMKAEALAMGFTHAACGPFVRSSYHADLQAKGMEVK
B4: lipA I153Q (protein)
chain: B3 chain with D22I, I153Q
B5: lipA L76W (protein)
chain: B3 chain with D22I, L76W
B6: lipA L76Q (protein)
chain: B3 chain with D22I, L76Q
B7: lipA L76A (protein)
chain: B3 chain with D22I, L76A
B8: lipA I22P (protein)
chain: B3 chain with D22P
B9: lipA M235Q (protein)
chain: B3 chain with D22I, M235Q
B10: lipA M235A (protein)
chain: B3 chain with D22I, M235A
B11: lipA V132D (protein)
chain: B3 chain with D22I, V132D
B12: lipA I153A (protein)
chain: B3 chain with D22I, I153A
B13: lipA V132Q (protein)
chain: B3 chain with D22I, V132Q
B14: lipA V132A (protein)
chain: B3 chain with D22I, V132A

biological target: Escherichia coli (laboratory strain); assay: barcode share on antibiotic plates over drug-free plates; higher = less susceptible; settings: antibiotic: carbenicillin; 2× MIC (3.1 µg/mL)
Protocol: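 A pool of E. coli strains, each edited to carry one amino-acid change in an essential protein, was grown for 48 h on minimal glucose agar with or without antibiotic; strain barcodes were sequenced; mean of two replicates.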

| Protein | fold change of barcode share |
| --- | --- |
| B1 | > 22.9 [active] |
| B2 | 0.336 ± 0.13 |
| B3 | 2.12 ± 1.2 |
| B4 | 0.265 ± 0.15 |
| B5 | 0.227 ± 0.031 |
| B6 | 0.292 ± 0.027 |
| B7 | 0.413 ± 0.15 |
| B8 | 1.47 ± 1.2 |
| B9 | 0.48 ± 0.39 |
| B10 | 0.325 ± 0.12 |
| B11 | 2.32 ± 0.041 |
| B12 | 0.442 ± 0.29 |
| B13 | 0.256 ± 0.084 |
| B14 | 0.306 ± 0.072 |

same assay, conditions: antibiotic: gentamicin; 2× MIC (MIC 0.45 µg/mL)

| Protein | fold change of barcode share |
| --- | --- |
| B2 | 0.00459 ± 0.004 |
| B3 | 153 [active] |
| B5 | 0.00297 ± 0.0026 |
| B6 | 0.0473 ± 0.063 |
| B7 | 0.00555 ± 0.0057 |
| B8 | 55.2 [active] |
| B9 | 0.0417 ± 0.045 |
| B10 | 0.0416 ± 0.0059 |
| B13 | 0.0382 ± 0.024 |
